# Results reported in article PMC4336329 (PLoS ONE, 2015).
# In all, about 310,000 compounds went through this assay and about 2,200 (0.71%) showed an effect of 50% or more. The effect is printed as a negative number. The list shows a part of the results.
# Target: human ether-à-go-go-related gene (hERG) potassium channel (human, UniProt Q12809)
# Assay: primary screen, population patch clamp on CHO cells stably expressing hERG
# human ether-à-go-go-related gene (hERG) potassium channel, sequence (Q12809 whole entry, looked up): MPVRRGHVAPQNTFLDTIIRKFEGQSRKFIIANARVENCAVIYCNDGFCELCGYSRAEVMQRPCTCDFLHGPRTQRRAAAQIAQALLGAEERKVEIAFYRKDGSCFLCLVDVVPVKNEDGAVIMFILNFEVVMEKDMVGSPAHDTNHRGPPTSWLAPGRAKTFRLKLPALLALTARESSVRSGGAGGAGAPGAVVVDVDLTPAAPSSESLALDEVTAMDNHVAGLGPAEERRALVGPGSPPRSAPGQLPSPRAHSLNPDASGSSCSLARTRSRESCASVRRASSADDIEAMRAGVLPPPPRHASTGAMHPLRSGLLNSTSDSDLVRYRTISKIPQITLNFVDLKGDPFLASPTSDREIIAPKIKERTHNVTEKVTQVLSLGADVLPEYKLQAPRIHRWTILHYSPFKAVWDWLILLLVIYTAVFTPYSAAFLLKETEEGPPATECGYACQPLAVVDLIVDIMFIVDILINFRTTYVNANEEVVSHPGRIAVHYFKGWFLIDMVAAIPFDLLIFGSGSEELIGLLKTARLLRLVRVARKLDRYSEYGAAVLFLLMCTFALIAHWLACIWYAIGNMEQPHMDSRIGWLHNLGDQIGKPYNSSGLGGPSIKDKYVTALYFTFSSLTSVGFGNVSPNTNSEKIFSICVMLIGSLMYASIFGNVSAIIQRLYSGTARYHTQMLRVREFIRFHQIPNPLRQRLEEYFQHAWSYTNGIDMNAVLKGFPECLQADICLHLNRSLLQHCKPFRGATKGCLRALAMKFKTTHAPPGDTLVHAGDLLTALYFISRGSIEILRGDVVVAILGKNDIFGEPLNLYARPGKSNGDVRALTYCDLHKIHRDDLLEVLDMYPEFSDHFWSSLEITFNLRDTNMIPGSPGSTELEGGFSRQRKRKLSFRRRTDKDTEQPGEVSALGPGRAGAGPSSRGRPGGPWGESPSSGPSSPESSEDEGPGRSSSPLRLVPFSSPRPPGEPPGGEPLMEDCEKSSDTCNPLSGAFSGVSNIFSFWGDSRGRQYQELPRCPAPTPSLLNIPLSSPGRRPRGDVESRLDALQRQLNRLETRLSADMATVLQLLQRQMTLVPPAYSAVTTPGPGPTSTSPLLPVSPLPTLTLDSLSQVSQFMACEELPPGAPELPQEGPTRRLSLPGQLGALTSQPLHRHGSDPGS
row,SMILES,"hERG current change (%, negative = inhibition) at 1uM"
1,Cc1ccc(-n2c(-c3ccc(Cl)cc3Cl)n[nH]c2=S)cc1,16.7%
2,Cc1cc(C)cc(NC(=O)Nc2ccc3c(c2)N(C)C(=O)CS3)c1,7.38%
3,CCC1CN(C(=O)N2CCC(C(=O)NCCc3ccc(OC)c(OC)c3)CC2)c2ccccc2O1 (centres unmarked),4.76%
4,O=C(O)C(=O)O.c1coc(CNCCc2c[nH]c3ccccc23)c1,10.9%
5,C/C(=N\NC(=O)COc1ccc(C(C)(C)C)cc1)c1ccc(-n2ccnc2)cc1,6.49%
6,CC(NCc1ccc(S(N)(=O)=O)cc1)C(=O)Nc1cc([N+](=O)[O-])ccc1Cl (centres unmarked),-6.64%
7,CCOC(=O)/C=C1\CN(CCC(C)C)S(=O)(=O)c2ccccc21,6.97%
8,CCOC(=O)N1CCN(S(=O)(=O)c2ccc3c4c(cccc24)C(=O)N3)CC1,-2.74%
9,[N-]=[N+]=CC(=O)CNC(=O)[C@@H](Cc1ccccc1)N1C(=O)c2ccccc2C1=O,9.72%
10,CC1(C)Cc2ccccc2-c2nnc(SCC(=O)N3CCN(c4ccccc4)CC3)n21,-10.9%
11,CNC(=O)C12CCC(C)(c3nc4cc(C)c(C)cc4nc31)C2(C)C (centres unmarked),2.03%
12,CCN1CCN(S(=O)(=O)Cc2ccccc2)CC1,13.6%
13,C=C(C)COc1ccc2c(C)c(CCC(=O)N3C[C@H]4C[C@@H](C3)c3cccc(=O)n3C4)c(=O)oc2c1,-15%
14,Cc1cc(C)cc(NC(=O)CCCSc2nc3ccccc3[nH]2)c1,7.13%
15,O=c1c2ccccc2nc2n1C(CSc1ccc(F)cc1)CN2 (centres unmarked),8.57%
16,COc1cc(OC)cc(-c2nnc(N(C)C(=O)c3ccncc3)s2)c1,1.34%
17,Cc1c(-c2ccccc2)sc(N)c1C(=O)N1CCOCC1,-14.6%
18,O=C(CN1C(=O)CCOc2ccccc21)Nc1ccc(Cl)c(S(=O)(=O)N2CCOCC2)c1,13.9%
19,CCCCNC(=O)c1nn(-c2ccccc2OC)c(=O)c2ccccc12,1.81%
20,CCOC(=O)C(=O)Nc1ccccc1C(=O)NCc1ccccc1,-1.34%
21,COC(=O)CS(=O)(=O)c1cccc2cccnc12,14.5%
22,Cc1ccc(-c2c3c(nc4sc(C(N)=O)c(N)c24)CCCC3)o1,13.9%
23,O=C(Cn1nnc(-c2cc(C(F)(F)F)cc(C(F)(F)F)c2)n1)NNC(=S)Nc1ccc(Cl)cc1,10.4%
